# Assay results published in PubChem BioAssay AID602233 (National Center for Advancing Translational Sciences (NCATS), 2012).
# In all, about 380,000 compounds went through this assay and about 170 (0.045%) were called active. Calls follow the shape of the dose curve; as a rule, active = well fitted inhibition curve with a large enough effect; inconclusive = small, poorly fitted or top-dose-only effect; inactive = no such curve, though single readings can be large or run the other way. The list shows a part of the results, in another mix than the full data. A structure can be active in one record and inactive in another. Where a SMILES comes first, the peptide text is derived from it. Bridges are numbered along the chain shown (N, C = ends). [ ]: non-standard residue; d: D form. The star is where a group is joined. X1 = CCC(C)C(N)C1=NC(C(=O)*)CS1; dOrn = NCCC[C@@H](N)C(=O)O
# Biological target: Phosphoglycerate kinase, glycosomal (Trypanosoma brucei brucei) (UniProt P07378)
# Test: qHTS Assay to Find Inhibitors of Phosphoglycerate Kinase; also: nearly all actives have a fitted effect of over 60% in size
# Conditions: PGK/GAPDH coupled, Kinase-Glo luminescence, 60 min; series mostly up to 57.5 µM; activity change, negative = inhibition: at the top concentration
# Summary of the method: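 Luminescent ATP detection (Kinase-Glo Plus) follows a 60-minute room-temperature incubation, with wells lacking PGK as controls. Buffer: 100 mM TEA (pH 7.6), 5 mM MgCl2, 0.01% Tween-20. Coupling enzyme GAPDH (100 nM final) supplies unstable 1,3-BPG in-well.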
# % is scaled to controls: 0 for no effect and ±100 for the full control effect; potency is read from the fitted curve at half-maximal effect.
Structure (SMILES),"activity change, negative = inhibition",Potency,outcome
CCCC(C(=O)NC1CCCC1)N(CC1CCCO1)C(=O)CNS(=O)(=O)c1ccc(F)cc1 (stereo not given),inactive: 19.3%,,
CC(C)C(C(=O)O)N1C(=O)/C(=C/C=C/c2ccco2)SC1=S (stereo not given),,active: 8.91 µM,
O=C(NCCCN1CCCC1)c1ccc2c(Cl)c3c(nc2c1)CCCC3,inactive: 1.62%,,
O=S(=O)(O)c1cc(O)c(N=Nc2ccc(O)cc2O)c2ccccc12,,active: 25.1 µM,
NC[C@H](O)c1ccc(O)c(O)c1,inactive: -4.16%,,
COC(=O)C1=C(C)N=c2s/c(=C/c3cccs3)c(=O)n2C1c1ccc(F)cc1 (stereo not given),inactive: 22.1%,,
CC(C)(C)OC(=O)C[C@H]1C/C=C\C[C@@H](CC(=O)N(CCO)Cc2ccccc2)C(=O)NC[C@H](c2ccccc2)OC1=O,inactive: -0.192%,,
Cc1csc(N=Nc2ccc(N(C)C)cc2)[n+]1[O-],,active: 15.8 µM,
C#CCOCCOCCOCCNc1nc(N2CCN(C(=O)CCCCCCCCCCNC(=O)[C@H]([C@@H](C)CC)n3cc(CCCCCN)nn3)CC2)nc(N2CCN(C(=O)CCCCCCCCCCNC(=O)[C@H](CO)n3cc(CCCCCN)nn3)CC2)n1,inactive: 17.2%,,
O=C(O)c1cccc(-n2cccc2/C=C\[N+](=O)[O-])c1,inactive: -27.9%,,
Cc1nn2c(NCCOCCO)c3c(nc2c1-c1ccccc1)CCCC3,inactive: 18.5%,,
CC(=O)N(C(C)=O)c1nc2nc(C)cc(C)n2n1,inactive: 21.9%,,
CN(C)C(CNC(=O)CNC(=O)c1ccc(Br)cc1)c1ccccc1 (stereo not given),inactive: 12.4%,,
Cc1nc2cc(-c3ccccc3)sc2c(=O)n1N,,active: 10 µM,
Cc1nonc1OCCNc1ccc([N+](=O)[O-])cc1,inactive: 31.2%,,
Cc1ccc(-c2nc(CS(=O)CC(=O)N3CCN(c4cccc(Cl)c4)CC3)c(C)o2)cc1 (stereo not given),inactive: 20.3%,,
CC1CCN(S(=O)(=O)c2ccc3nc(N4CCN(c5ccccc5)CC4)ccc3c2)CC1,inactive: -2.14%,,
c1ccc(-c2n[nH]c(-c3ccccn3)n2)nc1,inactive: -11.9%,,
O=C(N/N=C/c1ccccc1Cl)c1ccc(F)cc1,inactive: 28.9%,,
O=C(O)C1Nc2c(Cl)cc(Cl)cc2C2C=CCC12 (stereo not given),,active: 25.1 µM,
COc1ccc(CCNC(=S)Nc2cccc(C)c2C)cc1,inactive: 17.9%,,
CC(/C=N\N1CCN(Cc2ccc(C)cc2)CC1)=C\c1ccccc1,inactive: -4.43%,,
O=C(O)c1cc(-c2ccco2)nc2ccc(Br)cc12,inactive: -15.3%,,
COc1ccc(N2CCN(C(=O)Nc3ccccc3Cl)CC2)cc1,,,inactive
CCc1cc(=O)oc2cc(C)cc(OCC(=O)NC3CC3)c12,inactive: 17.3%,,
CCCOc1ccc(CNC(=O)CCCn2nc(C)c3sc4ccccc4c3c2=O)cc1,inactive: 17.2%,,
O=C1/C(=C\c2ccco2)CCC/C1=C\c1ccco1,inactive: -2.62%,,
CCC(C)C(N)C1=NC(C(=O)N[C@@H](CC(C)C)C(=O)N[C@H](CCC(=O)O)C(=O)N[C@H](C(=O)N[C@H]2CCCCNC(=O)[C@H](CC(N)=O)NC(=O)[C@@H](CC(=O)O)NC(=O)[C@H](Cc3cnc[nH]3)NC(=O)[C@@H](Cc3ccccc3)NC(=O)[C@H]([C@@H](C)CC)NC(=O)[C@@H](CCCN)NC2=O)[C@@H](C)CC)CS1 (stereo not given in full) (X1-L[dE]IK[dOrn]I[dF]H[dD]N; lactam 4-C),inactive: 2.35%,,
Cc1cc(C)cc(-n2c(C)cc(/C=C3\C(=N)N4N=C(CC(C)C)SC4=NC3=O)c2C)c1,inactive: 19.8%,,
CO/N=C(\C(=O)N[C@@H]1C(=O)N2C(C(=O)O)=C(COC(C)=O)CS[C@H]12)c1csc(N)n1 (stereo in doubt),,inactive,
